This note sets out measurements from the supplement of paper PMC4166925.

± gives the standard deviation of the averaged measurements. Over roughly 33,000 sequences, “E-score (dimensionless, -0.5 to 0.5)” has its median near -0.046; the highest 2% begin near 0.36. Some of the results follow.

In the test the test system is T1, SpTbr T-box DNA-binding domain (GST fusion).
T1 sequence: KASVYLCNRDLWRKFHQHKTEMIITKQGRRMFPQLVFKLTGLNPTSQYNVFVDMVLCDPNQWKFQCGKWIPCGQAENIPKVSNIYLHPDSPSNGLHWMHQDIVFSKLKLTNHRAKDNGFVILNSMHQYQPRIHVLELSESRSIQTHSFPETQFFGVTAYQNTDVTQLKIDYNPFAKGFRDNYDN
Briefly: PBM E-score of 8-mer (E-score (dimensionless, -0.5 to 0.5)); Tbr is Tbrain of the sea star Patiria miniata (Pm) or the sea urchin Strongylocentrotus purpuratus (Sp); higher = stronger binding preference; most listed sequences are background and not binding sites. The settings on record: the construct has about 5 more residues each side. In short, it runs like this: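 Primer extension turned Universal Agilent oligonucleotide arrays double-stranded. They were incubated with 200 nM protein in PBS (pH 7.5); the protein was a GST-fused Tbr T-box DNA-binding domain expressed in BL21 E. coli at 20 °C and purified on glutathione. Every ungapped 8-mer was scored from the scanned, quantified probe intensities, and the Universal PBM Analysis Suite gave each an enrichment E-score averaged over duplicate arrays.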
Regarding GCTACCTA, the “PBM E-score of 8-mer” value was -0.0771 ± 0.051.
In the case of GTGATGCA it was -0.0412 ± 0.099.
Take GGGGGAGA: the “PBM E-score of 8-mer” value was -0.2 ± 0.012.
For ATTCGACA, the “PBM E-score of 8-mer” value turned out to be 0.138 ± 0.032.
For AGGACGGC, the “PBM E-score of 8-mer” value is -0.337 ± 0.0074.
For the sequence AGCCGCGG, the “PBM E-score of 8-mer” value was -0.149 ± 0.057.
For the sequence GCTAGGCA, the “PBM E-score of 8-mer” value is -0.0643 ± 0.013.
For ACACCTTC, the “PBM E-score of 8-mer” value worked out at 0.4746 ± 0.0017.
In the case of AGGAAGGA it was -0.185 ± 0.0035; in that of AACCCTTA, -0.129 ± 0.029.
Take TACAGCAA: the “PBM E-score of 8-mer” value was -0.09 ± 0.046.
In the case of CGGGTTCC, the “PBM E-score of 8-mer” value was -0.149 ± 0.082.
For AACTGAAC, the “PBM E-score of 8-mer” value is -0.206 ± 0.09.
As for CCAGCTGA, the “PBM E-score of 8-mer” value was -0.1204 ± 0.00066.
As to CATAAAAC, the “PBM E-score of 8-mer” value is -0.0916 ± 0.077.
As to ATATGACA, the “PBM E-score of 8-mer” value worked out at 0.0532 ± 0.042.
On to CTACCACA, for which the “PBM E-score of 8-mer” value was determined as 0.0868 ± 0.013.
In the case of CATGGCGA it was 0.0624 ± 0.041; in that of ATGTTGGG, -0.0592 ± 0.0084.
With CCGCCTGC, the “PBM E-score of 8-mer” value amounted to 0.165 ± 0.03.
In the case of CCACTCAA it was 0.0906 ± 0.068.
Under GAATTTAA stands -0.146 ± 0.089; under GTCGCCAA, 0.245 ± 0.02.
With TCACAACA, the “PBM E-score of 8-mer” value was determined as 0.363 ± 0.0075.
On to CATCTGTA, for which the “PBM E-score of 8-mer” value is -0.0572 ± 0.038.
Turning to AGTGGCTC, the “PBM E-score of 8-mer” value was -0.103 ± 0.045.
Regarding AAGAACTA, the “PBM E-score of 8-mer” value is -0.177 ± 0.055.
Consider AGGTACAG, for which the “PBM E-score of 8-mer” value is -0.35 ± 0.027.
On to CACCAACA, for which the “PBM E-score of 8-mer” value was found to be 0.247 ± 0.042.
Take TCGAGTCA: the “PBM E-score of 8-mer” value was -0.184 ± 0.017.
As for GATATTGA, the “PBM E-score of 8-mer” value is -0.191 ± 0.084.
In the case of TAGAAACA it was -0.248 ± 0.0026; in that of CTACGCAG, 0.02 ± 0.0093; in that of CGTCTGGC, -0.0753 ± 0.033.
Regarding ATCGCAGC, the “PBM E-score of 8-mer” value was 0.0579 ± 0.024.
Turning to GCTGTAAA, the “PBM E-score of 8-mer” value was 0.0886 ± 0.048.
For the sequence ATACACAA, the “PBM E-score of 8-mer” value is -0.0928 ± 0.023.
Regarding AAACGGGG, the “PBM E-score of 8-mer” value was -0.0657 ± 0.052.
Turning to CCGGCAGC, the “PBM E-score of 8-mer” value worked out at 0.0786 ± 0.11.
Consider AGGCTCCG, for which the “PBM E-score of 8-mer” value was -0.041 ± 0.009.
With ACGCGGAG, the “PBM E-score of 8-mer” value was -0.184 ± 0.037.
Regarding CGGTCCCC, the “PBM E-score of 8-mer” value is -0.214 ± 0.017.
Under GACCAGAC stands -0.212 ± 0.023; under AGGAGATA, -0.139 ± 0.0077; under GGGCCGTA, -0.386 ± 0.01.
As to CGTCTTAG, the “PBM E-score of 8-mer” value is 0.0956 ± 0.011.
As to ATAGCAGG, the “PBM E-score of 8-mer” value turned out to be 0.0472 ± 0.074.
Take AACTCAGG: the “PBM E-score of 8-mer” value is -0.0823 ± 0.00092.
Regarding CGCTGTAG, the “PBM E-score of 8-mer” value was -0.117 ± 0.051.
Under CGCCTTGC stands 0.137 ± 0.044; under TGACGTAA, -0.098 ± 0.019.
For the sequence AGGATTTG, the “PBM E-score of 8-mer” value was -0.245 ± 0.05.
As for AATAATTC, the “PBM E-score of 8-mer” value was -0.113 ± 0.025.
Under ATCCCTGC stands -0.0783 ± 0.063; under ACCCAGAA, -0.0437 ± 0.029; under AAATTAGG, -0.149 ± 0.072.
On to AGGACTAC, for which the “PBM E-score of 8-mer” value is -0.215 ± 0.06.
For AAGAGTCC, the “PBM E-score of 8-mer” value is -0.222 ± 0.021.
Consider ATTTAGGA, for which the “PBM E-score of 8-mer” value is -0.296 ± 0.037.
On to CAGGCACC, for which the “PBM E-score of 8-mer” value was -0.131 ± 0.02.
Under GCCTCTGA stands -0.087 ± 0.038; under ATAATGAA, -0.167 ± 0.061; under CTCGTCAG, 0.0774 ± 0.031.
For CCGCTCTC, the “PBM E-score of 8-mer” value is -0.00942 ± 0.013.
In the case of ACATGCCA, the “PBM E-score of 8-mer” value turned out to be 0.135 ± 0.029.
For the sequence TCAGGAGA, the “PBM E-score of 8-mer” value was -0.236 ± 0.035.
Turning to CCGTAACG, the “PBM E-score of 8-mer” value was found to be 0.016 ± 0.031.
Under GAGGGAAC stands -0.0664 ± 0.028; under GAGGTAAA, -0.14 ± 0.026; under ACGGTATA, 0.119 ± 0.03.
In the case of GGAGAGCC, the “PBM E-score of 8-mer” value was -0.268 ± 0.026.
On to AACGTGTC, for which the “PBM E-score of 8-mer” value amounted to 0.372 ± 0.0067.
For the sequence CCGCTCAC, the “PBM E-score of 8-mer” value worked out at 0.151 ± 0.069.
Under ACGTTGGG stands 0.0926 ± 0.053; under ATCCTGCC, -0.182 ± 0.054.
Under GCTTACAC stands 0.219 ± 0.012; under GGAACAAC, -0.138 ± 0.096; under CCGTCTGA, -0.337 ± 0.039.
Under CCGTTTGA stands -0.108 ± 0.054.
For ACTTAAGA, the “PBM E-score of 8-mer” value is -0.0415 ± 0.05.
With GTGCGGCA, the “PBM E-score of 8-mer” value came to 0.0752 ± 0.035.
On to ACAATAGC, for which the “PBM E-score of 8-mer” value is -0.0388 ± 0.035.
In the case of AGGATGTC, the “PBM E-score of 8-mer” value is -0.126 ± 0.034.
Consider GAAACATA, for which the “PBM E-score of 8-mer” value was 0.00184 ± 0.075.
For CGATGACA, the “PBM E-score of 8-mer” value was determined as 0.295 ± 0.046.
As to CTGGCGGA, the “PBM E-score of 8-mer” value was -0.184 ± 0.038.
